The text below walks through data of PubChem BioAssay AID1346428 (National Center for Advancing Translational Sciences (NCATS), 2018).

In all, about 48,000 compounds went through this assay and about 1,200 (2.5%) were called active. Another 2% or so got no clear call; they are omitted.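 The calls were made as follows: active = activation of at least 60% and not above a set upper limit (about 1 call in 100 departs from these limits); inconclusive = activation of 40% to 60%, or above that upper limit; inactive = activation under 40%.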 This is one part of the list.

The assay deals with Probable G-protein coupled receptor 32 (Homo sapiens) (UniProt O75388). The experiment in a line: qHTS for Agonists of Human Resolvin D1 Receptor DRV1. Also: 0% is about no effect. The note with it: CHO-K1 GPR32 beta-arrestin PathHunter luminescence, 90 min; at 76.9 µM; active compounds read high; zero percent set by DMSO-only wells. Put shortly: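 Agonism was scored by beta-Gal fragment complementation (chemiluminescent read, 1 h detection at ambient temperature) reporting beta-arrestin binding to GPR32 in engineered CHO-K1 cells. Compound treatment lasted 90 min at 37 C, normalized to a DMSO basal control.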
UniProt O75388, sequence (O75388 whole entry, looked up, the tested form may be a part): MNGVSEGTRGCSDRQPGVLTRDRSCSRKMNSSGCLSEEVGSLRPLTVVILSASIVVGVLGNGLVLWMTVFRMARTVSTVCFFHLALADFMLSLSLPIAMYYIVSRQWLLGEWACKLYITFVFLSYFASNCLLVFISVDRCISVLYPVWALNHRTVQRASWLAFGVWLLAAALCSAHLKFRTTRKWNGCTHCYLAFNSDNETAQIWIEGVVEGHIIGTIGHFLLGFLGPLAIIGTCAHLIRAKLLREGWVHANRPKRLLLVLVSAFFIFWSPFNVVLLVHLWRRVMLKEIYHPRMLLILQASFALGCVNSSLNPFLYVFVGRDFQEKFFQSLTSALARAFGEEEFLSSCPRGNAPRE
As to `CCOc1ccc(-n2nc3ccc(NC(=O)c4ccc(-c5cccc(Cl)c5)o4)cc3n2)cc1`, the activation was inactive: -4.86%.

As for `CN1CCc2nc3sc(C(=O)Nc4ccccc4C(F)(F)F)c(N)c3cc2C1`, the activation is inactive: -25.4%.

Take `COc1ccccc1Cc1nc2ccccc2nc1SCC(=O)NCc1ccccc1Cl`: the activation is inactive: -11.2%.

Consider `CC1=C(C(=O)OC2CCCCCC2)C(c2cccc(Cl)c2)CC(=O)N1` (centres undefined), for which the activation was inactive: 42.6%.

On to `CCCC1=Nc2cc(C(=O)N3CCC(C)CC3)ccc2Sc2ccc(C)cc21`, for which the activation is inactive: 1.18%.

Turning to `Cc1ccc2c(=O)c(C(=O)c3cccc(Cl)c3)cn(CC(=O)Nc3ccccc3C(F)(F)F)c2n1`, the activation is inactive: -10.7%.

Turning to `COc1ccccc1C(=O)OCc1cc(=O)n2nc(C(C)C)sc2n1`, the activation was inactive: 0%.

Regarding `CC1=Nc2cc(C(=O)NCCc3ccc(Cl)cc3)ccc2Sc2c(C)ccc(C)c21`, the activation was inactive: -15%.

Take `COc1ccc(-c2noc(-c3ccc(NCC4CCCO4)c([N+](=O)[O-])c3)n2)cc1OC` (centres undefined): the activation was inactive: 30.9%.

As for `COc1ccccc1CNC(=O)c1oc2ccc3c(c2c1C)C(=O)CC(C)(C)O3`, the activation was inactive: -26.5%.

Regarding `CC(=O)Nc1ccc(NC(=O)CCS(=O)(=O)c2ccc3c(c2)CC(=O)N3C)cc1`, the activation was inactive: 0%.

As to `CCOC(=O)CC(=O)CSc1nc2ccccc2c(=O)n1CCc1ccc(S(N)(=O)=O)cc1`, the activation was inactive: -5.11%.

In the case of `CC1CCCCN1CCCNC(=O)c1cc(Sc2ccc(Cl)cc2)nc2ccccc12` (centres undefined), the activation was inactive: -21.5%.

In the case of `O=S(=O)(c1ccc(-c2cnc(C3CC3)o2)cc1)N1CCN(c2cccc(Cl)c2)CC1`, the activation was inactive: -1.75%.

Regarding `Cc1cccc(S(=O)Cc2ccc(C(=O)NC3CCCCCC3)o2)c1` (centres undefined), the activation was inactive: -15.1%.

Consider `CCOc1ccccc1C(=O)Nc1cc(-c2ccc(C)cc2)no1`, for which the activation was inactive: -12.2%.

For the molecule `Cc1ccc(C(=O)Nc2ccc(C(=O)OCc3cc(=O)n4c5c(sc4n3)CCCC5)cc2)cc1`, the activation is inactive: -20.1%.

`Cc1c(-c2ccccc2)n(-c2ccccc2O)c2nc3c(c(=O)n(C)c(=O)n3C)n12`: the activation is inactive: -17.1%.

For `CCCOc1ccc(C2=NC(c3ccc(F)cc3)=Nc3ccc(OC)cc3N2)cc1`, the activation was inactive: -9.13%.

Consider `CC[N+](CC)(CCNC(=O)C(=O)NCC[N+](CC)(CC)Cc1ccccc1Cl)Cc1ccccc1Cl`, for which the activation is inactive: -5.91%.

Turning to `CCc1cccc(C)c1NC(=O)C1=C(C)C(=O)OC12CCC(C)CC2` (centres undefined), the activation is inactive: -13.6%.

For the molecule `Cc1ccc2c(c1)c(=O)c(S(=O)(=O)c1ccc(C)c(C)c1)cn2CC(=O)Nc1ccccc1`, the activation was inactive: 6.47%.

In the case of `O=C(c1ccc2c(c1)N(Cc1ccccc1)C(=O)c1ccccc1S2=O)N1CCC(Cc2ccccc2)CC1` (centres undefined), the activation is inactive: 19.4%.

With `COc1ccccc1Nc1ncc(C(=O)Nc2ccc(OC)c(OC)c2)c2ccccc12`, the activation was inactive: 2.17%.

Consider `COc1ccc(NC(=O)NCC2CCN(Cc3ccccc3F)CC2)c(OC)c1`, for which the activation was inactive: -7.81%.

As to `COc1ccccc1CNC(=O)c1cnc2sc(N3CCOCC3)nn2c1=O`, the activation is inactive: -9.32%.

Take `COc1ccc(N2CCN(C(=O)Cn3nc(Cc4cccnc4)c4ccccc4c3=O)CC2)cc1`: the activation was inactive: -8.06%.

For the molecule `CC(=O)N[C@H]1[C@H]([C@H](O)[C@H](O)CO)OC(C(=O)O)=C[C@@H]1N=C(N)N`, the activation was inactive: -0.0498%.

For `Cc1ccc(Nc2ncnc3c2nc2n3CCCC2)c(Br)c1`, the activation was inactive: -11.4%.

As to `Cn1cc(C(=O)NCCc2ccc(Cl)cc2)c(=O)c2cc(S(=O)(=O)N3CCCCC3)ccc21`, the activation is inactive: -0.505%.

Consider `COC(=O)c1ccc(Cn2nnc3c(=O)[nH]c(C4CCCN(S(=O)(=O)c5ccccc5)C4)nc32)cc1` (centres undefined), for which the activation is inactive: 1.48%.

As for `COc1ccc2nc(N(Cc3cccnc3)C(=O)COc3ccccc3)sc2c1`, the activation is inactive: -27.6%.

Turning to `COC(=O)c1cc(S(=O)(=O)N2CCN(c3ccc(F)cc3)CC2)cn1C`, the activation was inactive: 31.6%.

For `COc1ccccc1CNC(=O)c1ccc2c(c1)CCN2S(=O)(=O)c1ccc(Cl)cc1`, the activation was inactive: -10.3%.

Turning to `O=C(O)c1ccc2c(c1)N(Cc1ccc(F)cc1Cl)C(=O)c1ccccc1S2`, the activation is inactive: 1.49%.

As for `COc1ccc(CCNC(=O)c2cc(S(=O)(=O)N3CCCC(C)C3)cn2C)cc1OC` (centres undefined), the activation was inactive: 34%.

Take `N=C(N)SCCN`: the activation was inactive: 12.5%.

Turning to `COc1ccc(NC(=O)CCS(=O)(=O)c2nc(-c3ccc4c(c3)OCO4)cc(C(F)(F)F)n2)c(OC)c1`, the activation is inactive: -6.89%.

Take `CC(C)N(Cc1ccccc1)C(=O)CN1C(=O)COc2ccc(S(=O)(=O)N3CCCCCC3)cc21`: the activation was inactive: -53.1%.

For `CCN(C(=O)c1cnc(N2CCOCC2)c2ccccc12)c1cc(C)ccc1C`, the activation was inactive: -17.8%.

With `CCOc1ccccc1NC(=O)c1ccc2c(Cl)c3c(nc2c1)CCCC3`, the activation is inactive: 34.8%.

Turning to `Cc1cc(NC(=O)C(C)(C)Oc2ccc(Cl)cc2)cc(-c2nc3ncccc3o2)c1O`, the activation was inactive: -20.9%.

Take `CC(=O)Nc1ccc(NC(=O)CCC(=O)c2ccc(C)cc2)cc1`: the activation is inactive: 8.91%.

Take `O=C(OCc1cc(=O)n2nc(-c3cccs3)sc2n1)c1ccccc1Br`: the activation was inactive: 2.76%.

In the case of `CCOc1ccc(-c2nnc(SCC(=O)NCCc3ccccc3)nc2-c2ccc(OCC)cc2)cc1`, the activation was inactive: -6.72%.

For the molecule `COc1cccc(CNc2nc3c(-c4cccc(C)c4)nnn3c3ccccc23)c1`, the activation was inactive: -12.6%.

For `CCOc1ccccc1NC(=O)c1cnc(N2CCOCC2)c2ccccc12`, the activation was inactive: -22.5%.

Regarding `COc1ccc(OCc2nc3c4c(-c5ccc(OC)cc5)c(-c5ccc(OC)cc5)oc4ncn3n2)cc1`, the activation is inactive: 1.54%.

`CNc1oc(-c2ccc(COc3ccc(C)cc3)o2)nc1C#N`: the activation is inactive: 5.06%.

For `CCCn1c2ccccc2c2cnn(CC(=O)Nc3ccc(C)cc3Br)c(=O)c21`, the activation was inactive: -15.5%.

Take `Cc1cc2ccccc2n2c(SCC(=O)Nc3cccc(C(F)(F)F)c3)nnc12`: the activation was inactive: -9.13%.

For the molecule `CCOC(=O)c1ccc(NC(=O)CSc2nccn2Cc2ccc(OC)cc2)cc1`, the activation is inactive: -5.88%.

Consider `Cc1cc(C)cc(C(=O)Nc2nnc3n2CCS3)c1`, for which the activation is inactive: -125%.

Regarding `CC(=O)c1cccc(NC(=O)c2c(C)nn(-c3ccc(F)cc3)c2-n2cccc2)c1`, the activation is inactive: -3.44%.

For `COC(=O)c1cc(NC(=O)c2ccc3c(c2)N(Cc2cccc(Cl)c2)C(=O)c2ccccc2S3=O)cc(C(=O)OC)c1` (centres undefined), the activation is inactive: -16.2%.

On to `CCCCCN1C(C(=O)c2ccccc2)=C(NC(C)=O)c2ccccc2S1(=O)=O`, for which the activation was inactive: -8.53%.

For `O=C(CSc1ncc2c(n1)-c1cc(Cl)ccc1N(Cc1ccccc1F)S2(=O)=O)Nc1cccc(C(F)(F)F)c1`, the activation is inactive: -16.2%.

On to `Cc1cc(Cl)ccc1OCC(=O)N(Cc1ccc(N(C)C)cc1)CC1CCCO1` (centres undefined), for which the activation was inactive: -3.24%.

As for `CC(C)Nc1ccc(-c2nc(-c3ccccn3)no2)cc1[N+](=O)[O-]`, the activation was inactive: 12.1%.

`Cc1cccc(CNC(=O)c2sc3ncnc(N(C)C4CCCCC4)c3c2C)c1`: the activation was inactive: -13.5%.

On to `O=C(C1CC1)N1CCN(c2nc3c(F)cc(F)cc3s2)CC1`, for which the activation was inactive: 20.2%.

Turning to `CCN(CC)c1nc(-c2ccccc2Cl)c2cc(Br)ccc2n1`, the activation is inactive: -8.72%.

Turning to `Cc1nn(-c2ccccc2)c2nc(C3CC3)cc(C(=O)NCc3ccccc3Cl)c12`, the activation was inactive: -18.2%.

Turning to `CCc1ccc(NC(=O)c2sc3nc(C)c(Cl)c(C)c3c2NC(=O)c2ccccc2)cc1`, the activation is inactive: -2.23%.

`COc1ccc(C)cc1NC(=O)CCNS(=O)(=O)c1cccc2nonc12`: the activation was inactive: -15.1%.

With `O=C(CO)[C@@H](O)[C@H](O)[C@@H](O)CO`, the activation is inactive: 7.28%.

In the case of `CCc1ccccc1Nc1ncnc2c1cnn2-c1ccc(Cl)cc1`, the activation is active: 73.1%.

In the case of `CSCCC(NS(=O)(=O)c1cccs1)C(=O)Nc1ccc(C)c(Cl)c1` (centres undefined), the activation was inactive: 39.6%.

`COC(=O)c1ccc(Cn2c(SCC(=O)NCc3ccccc3)nc3ccccc32)cc1`: the activation was inactive: -6.47%.

As to `CCOc1ccc(CCNC(=O)c2ccc(CS(=O)(=O)c3ccccc3C)o2)cc1OCC`, the activation is inactive: 32.8%.

As to `CCOC(=O)c1cnc2ccc(C(=O)OC)cc2c1Nc1ccc(N2CCOCC2)cc1`, the activation was inactive: 4.21%.

On to `COc1ccc(Cl)cc1NC(=O)c1ncn(-c2ccccc2)n1`, for which the activation is inactive: 32.5%.

As to `COc1ccc(OC)c(NC(=O)Cc2c(C)n(C(=O)c3ccc(Cl)cc3)c3ccc(OC)cc23)c1`, the activation is inactive: -19.9%.

With `CC(=O)c1ccc(NC(=O)CSc2nnc(NC(=O)Nc3ccccc3)s2)cc1`, the activation is inactive: 2.86%.

`Cc1ccc(C)c(Cn2c(=O)n(Cc3ccco3)c(=O)c3oc4ccccc4c32)c1`: the activation was inactive: 5.2%.

As for `CCc1ccc(NC(=O)Cn2c(=O)n(-c3ccccc3)c(=O)c3ccc(C(=O)NCc4ccc5c(c4)OCO5)cc32)cc1`, the activation is inactive: -3.26%.

As to `CC(=O)c1cccc(NC(=O)CN2C(=O)c3cccnc3Sc3ccccc32)c1`, the activation is inactive: -5.62%.

On to `CCN1CCOC(=O)C1CC(=O)Nc1ccc(C(C)=O)cc1` (centres undefined), for which the activation is inactive: 31%.

Take `COc1cc(CN(C(=O)c2ccc(OC(C)C)cc2)C2CCS(=O)(=O)C2)cc(OC)c1OC` (centres undefined): the activation was inactive: -12.3%.

For the molecule `CCc1ccccc1NC(=O)c1sc2nc3n(c(=O)c2c1C)CCC3`, the activation is inactive: -12.4%.

Consider `Cc1ccccc1OCc1ccc(-c2nc(C#N)c(N3CCN(c4ccccc4)CC3)o2)o1`, for which the activation was inactive: -22.1%.

On to `CCOc1ccc(CNC(=O)c2ccc(NC(=O)N3CCSc4ncccc43)cc2)cc1OC`, for which the activation is inactive: 1.47%.

Take `COc1cccc(Cn2c(C)c(CNCc3ccccc3Cl)c(C(=O)O)c2C)c1`: the activation was inactive: 10.7%.

Regarding `CN(C)c1cc2c(cc1NC(=O)c1ccc(F)cc1)n(C)c(=O)n2C`, the activation is inactive: -9.7%.
